# PubChem BioAssay AID2675 (National Center for Advancing Translational Sciences (NCATS), 2010)
# Values joined by “and” are separate entries in the source; they are usually repeats but may differ in a detail not shown here. Equal entries are not always repeated. Screen size: about 280,000 compounds; about 100 (0.036%) were called active. This list was built around the results that the source calls inconclusive (neither active nor inactive); the mix of calls is not that of the screen. Calls come from the whole dose curve; as a rule, active = well fitted inhibition curve with a large enough effect in the signal ratio, with a control signal flat (not every such curve was filed as active); inconclusive = small, poorly fitted or top-dose-only effect, or effect the other way, or a change in a side signal; inactive = no such curve, though single readings can be large or run the other way; the % refers to the signal ratio. Potencies beside an inconclusive call are fits to weak or partial responses and may not hold up. “Side channel” marks fits to a control or component signal instead of the main read-out.
# Molecular target: Muscleblind-like protein 1 (Homo sapiens) (UniProt Q9NR56)
# UniProt Q9NR56, sequence (Q9NR56 whole entry, looked up): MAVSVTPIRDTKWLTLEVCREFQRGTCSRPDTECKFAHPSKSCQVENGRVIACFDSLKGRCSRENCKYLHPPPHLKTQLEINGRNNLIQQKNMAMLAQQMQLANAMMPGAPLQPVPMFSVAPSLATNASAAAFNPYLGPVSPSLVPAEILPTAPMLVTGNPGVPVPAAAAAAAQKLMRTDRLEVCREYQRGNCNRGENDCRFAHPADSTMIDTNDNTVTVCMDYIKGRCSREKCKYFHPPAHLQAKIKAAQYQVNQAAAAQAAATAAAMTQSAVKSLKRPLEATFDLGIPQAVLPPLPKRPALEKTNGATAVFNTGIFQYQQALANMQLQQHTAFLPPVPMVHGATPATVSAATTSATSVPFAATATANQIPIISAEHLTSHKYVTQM
# Test: qHTS Assay for Inhibitors of MBNL1-poly(CUG) RNA binding
# Details: TR-FRET MBNL1-His/biotin-(CUG)12 binding, 665/545 ratio; activity change, negative = inhibition: at 57.5 µM (top of the series)
# In short: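 Ratiometric TR-FRET (665 over 545 nm, excitation 340 nm) tracks disruption of MBNL1-His/biotin-(CUG)12 complex after 60 min at room temperature, with compounds at 92 nM to 58 uM final.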
# % is set by controls: 0 for no effect and ±100 for the full control effect; potency is the fitted concentration of half-maximal effect; tags give direction and shape of the fitted curve or compound fluorescence and quenching.
Compound,Potency,"activity change, negative = inhibition"
Cc1ccc(CNC(=O)COC(=O)CCCOc2ccc(Cl)cc2Cl)cc1,"inconclusive: 5.01 µM [quencher, side channel, full curve]",–
COC(=O)CSc1nnc(CNc2nc(-c3ccccc3)cs2)n1C,"inconclusive: 8.91 µM [quencher, side channel, single point]",–
O=C(O/N=C1\CCCCC1c1ccc([N+](=O)[O-])cc1[N+](=O)[O-])c1c(F)cccc1F (stereo not drawn),"inconclusive: 15.8 µM [quencher, side channel, partial curve]",–
COc1cc(/C=C/C(=O)OCC(=O)N2CCN(C(=O)c3ccco3)CC2)ccc1O,"inconclusive: 17.8 µM [quencher, side channel, partial curve]",–
O=C(Nc1ccc(N2CCOCC2)c(Cl)c1)c1ccc(Cl)cc1,–,inactive: 2.88%
CC1=CC(C)(C)NC(=S)N1c1ccc2ccccc2c1,–,inactive: 5.28%
CC(C)(C)n1nc2c(c1NC(=O)Cc1ccccc1)CS(=O)(=O)C2,–,inactive: 0.888%
CC1CCN(c2cc(=O)n(C3CCCCC3)c(=O)[nH]2)CC1,"inconclusive: 8.91 µM [quencher, side channel, single point]",–
O=C(NC(=S)NCc1cccnc1)c1ccccc1,"inconclusive: 0.126 µM [quencher, side channel, partial curve, poor fit]",–
CN1CCN(Cc2cc(COCc3ccccc3)c3cccnc3c2O)CC1,"inconclusive: 20 µM [quencher, side channel, single point]",–
O=C(N/N=C/C=C/c1ccco1)c1cccs1,"inconclusive: 28.2 µM [quencher, side channel, partial curve]",–
Cc1cc(NS(=O)(=O)c2ccc(CC(C)C)cc2)no1,–,inactive: 2.93%
O=C(O)Cn1c(O)c(C=Nc2ccccc2)sc1=S,"inconclusive: 15.8 µM [quencher, side channel, partial curve] and inconclusive: 17.8 µM [quencher, side channel, partial curve]",–
CSc1ncccc1C(=O)OCC(=O)c1ccc(Br)s1,–,inactive: 22.1%
CCc1ccc(-c2cc(C(=O)NCCCn3ccnc3)c3ccccc3n2)s1,"inconclusive: 28.2 µM [quencher, side channel, single point]",–
CCN(CC)c1ccc(/C=N/NC(=O)c2cc3ccccc3[nH]2)cc1,"inconclusive: 15.8 µM [quencher, side channel, single point]",–
NS(=O)(=O)c1ccc(CNC(=O)c2cc(=O)c3ccccc3o2)cc1,"inconclusive: 7.94 µM [quencher, side channel, partial curve]",–
CCn1c(SCC(=O)N/N=C/c2ccccc2OCC(=O)O)nnc1-c1ccc(OC)cc1,"inconclusive: 7.94 µM [inhibitor, single point]",–
Cn1c(SCC(=O)Nc2ccccc2)nnc1-c1ccc(NC(=O)CCc2ccccc2)cc1,–,inactive: 9.41%
N#C/C(=N\Nc1ccc(S(=O)(=O)N2CCOCC2)cc1)C(N)=S,"inconclusive: 17.8 µM [quencher, side channel, partial curve]",–
CCOc1ccccc1CNC(=O)c1cn(C)c(=O)c2c1c1ccccc1n2C,–,inactive: -4.2%

Compound,Potency,"activity change, negative = inhibition"
O=C(C[n+]1cccc2ccccc21)c1ccc(Cl)cc1,"inconclusive: 12.6 µM [quencher, side channel, partial curve]",–
CCNC(=O)/C(C#N)=C/c1c(N2CCN(c3ccccc3)CC2)nc2ccccn2c1=O,"inconclusive: 12.6 µM [quencher, side channel, partial curve]",–
CCN(C(=O)CN1C(=O)S/C(=C\c2ccc(F)cc2)C1=O)C1CCS(=O)(=O)C1 (stereo not drawn),"inconclusive: 15.8 µM [quencher, side channel, partial curve]",–
O=C(C1CCN(S(=O)(=O)c2cccc3nsnc23)CC1)N1CCn2c1nc1ccccc12,"inconclusive: 3.16 µM [quencher, side channel, full curve]",–
CCOC(=O)C1=C(C)OC(N)=C(C#N)C1c1ccc(O)c(OC)c1 (stereo not drawn),–,inactive: 9.62%
CCOC(=O)c1ccc(NC(=O)c2ccccc2N(C)S(=O)(=O)c2ccccc2)cc1,–,inactive: -3.03%
Cc1cc2cc(CNS(=O)(=O)c3ccc4ccccc4c3)ccc2n1C,–,inactive: 96.4%
CC(C)c1ccc(COc2ccc(C(=O)N3CCOCC3)cc2)cc1,–,inactive: -6.97%
CCCn1c(=N)c(C(=O)NCC2CCCO2)cc2c(=O)n3cccc(C)c3nc21 (stereo not drawn),"inconclusive: 3.16 µM [quencher, side channel, full curve]",–
COC(=O)c1cnc2c(C(F)(F)F)cccc2c1OC,–,inactive: 7.43%
COc1ccccc1/C=C1\SC(=S)N(CCC(=O)Nc2cccc(O)c2)C1=O,"inconclusive: 25.1 µM [quencher, side channel, partial curve]",–
NC(=S)Nc1cccc2cc3ccccc3cc12,"inconclusive: 15.8 µM [quencher, side channel, partial curve]",–
CCN1CCN(Cc2c(O)ccc3c2O/C(=C\c2ccc(C)cc2)C3=O)CC1,"inconclusive: 28.2 µM [quencher, side channel, partial curve]",–
O=C(CC(=O)c1cccc([N+](=O)[O-])c1)Nc1ccccc1Cl,"inconclusive: 28.2 µM [quencher, side channel, single point]",–
O=C1N(O)C2(C=CCCC2)/C(=N\O)C12CCCCC2 (stereo not drawn),–,inactive: -8.03%
CCCNC(=S)N1CCC(C(=O)c2ccc(Cl)cc2)CC1,"inconclusive: 0.1 µM [quencher, side channel, full curve]",–
CC(=O)COC(=O)c1ccc2noc(-c3ccccc3)c2c1,"inconclusive: 15.8 µM [quencher, side channel, partial curve]",–
COc1ccc(NC(=S)NC(NC(=O)c2ccc(Cl)cc2Cl)C(Cl)(Cl)Cl)c([N+](=O)[O-])c1 (stereo not drawn),"inconclusive: 31.6 µM [quencher, side channel, partial curve]",–
COc1ccc(CCNS(=O)(=O)c2cccc3nsnc23)cc1OC,"inconclusive: 14.1 µM [quencher, partial curve]",–
Nc1n[nH]c(-c2ccc([N+](=O)[O-])cc2[N+](=O)[O-])n1,"inconclusive: 11.2 µM [quencher, partial curve]",–
Cc1ccc(/C=N/NC(=O)c2cccnc2)s1,"inconclusive: 22.4 µM [quencher, side channel, single point]",–

Compound,Potency,"activity change, negative = inhibition"
CN1CN(C)c2ccc([N+](=O)[O-])c3cccc1c23,"inconclusive: 3.55 µM [quencher, side channel, full curve]",–
CCC(c1nnnn1CCOC)N(Cc1cc2cc(C)c(C)cc2[nH]c1=O)CC1CCCO1 (stereo not drawn),"inconclusive: 35.5 µM [quencher, side channel, single point]",–
O=C(Nc1ccc(F)c(F)c1)c1ccco1,"inconclusive: 10 µM [inhibitor, single point]",–
CCC(=O)N1CCN(c2nc(-c3ccccc3)c3c(c2C#N)CCCC3)CC1,–,inactive: 8.17%
COc1cccc(NC(=S)NN=C2CCC(C(C)(C)C)CC2)c1 (stereo not drawn),–,inactive: 5.2%
Cn1c(SCC2CCCO2)nnc1-c1cccc([N+](=O)[O-])c1 (stereo not drawn),"inconclusive: 25.1 µM [quencher, side channel, partial curve]",–
NC(=O)CC(NSc1ccccc1[N+](=O)[O-])C(=O)O (stereo not drawn),"inconclusive: 14.1 µM [quencher, side channel, partial curve]",–
COc1cccc(NC(=S)NC2CC3CCCC(C2)N3CC(C)C)c1 (stereo not drawn),–,inactive: -7.06%
CCCCNS(=O)(=O)c1ccc(NC(=O)C2c3ccccc3Oc3ccccc32)cc1,"inconclusive: 3.16 µM [fluorescent, side channel, partial curve]",–
CC(=O)c1ccc(S(=O)(=O)Nc2ccc(-c3ccc4nnc(C)n4n3)cc2)cc1,"inconclusive: 15.8 µM [quencher, side channel, partial curve]",–
CN(C)c1cc[n+](CC(=O)Nc2cccc([N+](=O)[O-])c2)cc1,"inconclusive: 15.8 µM [quencher, partial curve]",–
C#CCn1c(=NC(=O)c2ccc(Br)s2)sc2cccc(OC)c21,"inconclusive: 6.31 µM [activator, partial curve]",–
Cc1cc(C)c2nc3nc(C)c(C)cc3c(N)c2c1,"inconclusive: 5.62 µM [quencher, side channel, full curve]",–
Cc1cccnc1Sc1c([N+](=O)[O-])ncn1C,–,inactive: 3.31%
O=C(N/N=C/C(Cl)=C/c1ccccc1)c1ccncc1,"inconclusive: 20 µM [quencher, side channel, partial curve]",–
Cc1c(NC(=O)c2ccc3c(c2)C(=O)N(Cc2ccco2)C3=O)cccc1C(=O)O,"inconclusive: 14.1 µM [quencher, side channel, partial curve]",–
COc1ccc(C(=O)NC2c3ccccc3-c3ccccc32)cc1,"inconclusive: 7.08 µM [fluorescent, side channel, single point]",–
Cc1ccc(NCN2C(=O)c3ccccc3C2=O)c(C)c1,–,inactive: 2.96%
CNC[C@H](CC1CCCCC1)NC[C@H](CO)NCC1(c2ccccc2)CC1,–,inactive: 3.43%
CC(Nc1c([N+](=O)[O-])c(=O)oc2ccccc12)C(Cl)c1ccccc1 (stereo not drawn),"inconclusive: 17.8 µM [quencher, side channel, partial curve]",–
COc1ccc(OC)c(/C=C2\Oc3cc(OCC(=O)N4CCC(C(=O)O)CC4)ccc3C2=O)c1,"inconclusive: 22.4 µM [quencher, side channel, partial curve]",–
